This is one part of the list. The protein was read in a cell extract, so binding may be indirect.
What follows are sequences tested on PU.1 (endogenous, THP-1 nuclear extract) + IRF8 (endogenous, THP-1 nuclear extract) (assay: nuclear extract protein-binding microarray (nextPBM)). Settings: 20 mM HEPES pH 7.9, 100 mM NaCl, 1 mM DTT, 0.2 mg/mL BSA, 0.02% Triton X-100, 2% milk, 0.4 mg/mL salmon testes DNA; 1 h; temperature not stated; high values mean tight binding; double strand, one strand shown; sequences stand for … in GCCTAGCAC…GTGCTAGGTCTTGATTCGCTTGACGCTGCTG.

Sequence	binding signal [z-score]
TGAAAGCCAGAGAGGGCAGG	0.831
GGAGGAAGTCTTGAGGTGTT	0.356
AATTTTTTGTATTTTTAGTA	0.555
AAGGTGACTGCCTGAAACTT	2.01
CAGGAACAAGGAGCATGCTT	0.364
TTCCTCACAGTGAGGAAGAG	-0.27
TCCTCAGTCTGGCTGAGTGA	0.0452
TGGAAAACTGCGTGAAACCA	1.94
ACACTCCCACTAGTGCCATG	0.486
GAGAAGGCCAAACCCTGGGG	0.754
GAGAGGAGAAAAGGAACGTG	-0.367
ACATTTGTTCACTATTAACT	0.835
CCCAGAGCTGCGTGAAACCA	1.53
CTGGCAGCTGCCTGAAACTC	2.15
AAATGTCCCCTGTGGCAACA	1.58
CAGGGCCATTCCCAGGAAAA	-0.214
AGCTTTAAGAGCCAGTGCTC	-0.82
GCAGGCAGGGCTGTACCAGG	1.86
AACTAAATTAAACCACACCA	0.659
CCACAAAGATCTTGTGGGTA	0.0906

Sequence	binding signal [z-score]
TTAATAACATCTTCCCCAAC	-0.51
GGCCACGTTACTTTCTGCCC	-0.104
GTCTTATTTCCTCAAAATAG	-1.45
ACCAATGGGCGTGGGGGAGG	-1.34
ATACTCCACCCCTTTCTCAA	-0.278
CTGACTTTGGGTGACAGGCT	-0.394
ACCAACCCCCAGTCTCCCGA	2.73
TGTCACAAATCCATCACTGA	-0.706
TTAGTAACCTGCAAGCACTT	-0.877
AGTCAGCCTGGTGGCCTTCT	0.515
TGACGACTTTTCAGCTAGAC	-0.596
AGTTAACTAAAACAGTACGG	-0.132
CACTTTCAGGGCCCCTGCTG	1.18
GGAAGGCCTGCGTGAAAGCA	-0.551
TCAGTGGGGAAAGAATGATC	-1.37
TGGCGCTGTGCAGACTTGGC	0.386
GGGCAAGTCAGTTAATCTTG	0.0499
ACGTATGGAAAAACACAGAT	0.836
AAGGTTCTAGAGATCTATTG	0.0721
GCCCCCTCCAGTCCCCGCCC	-1.82
